Test results reported in PubChem BioAssay.
The inconclusive results got no clear call from the source; some entries with a clear call stand among them for comparison. Calls of active or inactive are those of the source.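 How the source made its calls: active means fitted half-maximal concentration for viability loss no higher than twice the top valid dose, in every repeat run; inconclusive means repeat runs disagree, flat partial loss, or poor curve fit; inactive means the rest.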

experiment: IOSE-T80 viability loss, PAX8-independent line – cell-based, cherry-pick, selectivity assay for PAX8 inhibitor project, dose response (AID 687032); details: CellTiterGlo ATP luminescence, 96 h; at 35 µM (top of the series) unless noted;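 further: cells exposed to compound for 96 h before reading; 0% = neutral control wells and -100% = 2 µM mitoxantrone kill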

| Structure (SMILES) | activity change, negative = viability loss |
| --- | --- |
| COc1ccc(NC(=O)C[C@H]2C(=O)N(c3ccc(OC)cc3)C[C@@H]2C)cc1 | inconclusive: -4.39% |
| COC(=O)[C@]12CCCCC=C1N(Cc1ccc(Cl)cc1Cl)C(=O)[C@H](CC(=O)N1CCN(C(=O)c3ccco3)CC1)C2 | inconclusive: 4.57% |
| CCCNC(=O)COc1nc2ccccc2nc1N1CCOCC1 | inconclusive: 12% |
| CC1(Cc2ccc(OC(F)(F)F)cc2)C(=O)Nc2ccc(S(=O)(=O)NC3CCCCC3)cc21 (configuration not stated) | inconclusive: 3.53% |
| CCCCn1c(O)c(N=NC(=O)Cn2c(C(F)(F)F)nc3ccccc32)c2ccccc21 | inconclusive: -51.3% |
| CCOc1ccc(C(CN2CCOCC2)C(C)=O)cc1OC (configuration not stated) | inconclusive: -2.84% |
| Cc1ccc(N(NC(=O)C(O)(c2ccccc2)c2ccccc2)C(=O)CCl)cc1 | inconclusive: -2.46% |
| CCCOc1ccc2[nH]c(C(=O)N/N=C/c3cc(OC)c(OC)c(OC)c3)cc2c1 | inconclusive: 3.3% |
| O=C(C[C@@H]1C[C@@H]2c3cc(NC(=O)Cc4ccncc4)ccc3O[C@@H]2[C@H](CO)O1)NCc1ccc(-c2ccccc2)cc1 | inactive: 11.7% |
| COc1cccc2c1C(=O)c1c(O)c3c(c(O)c1C2=O)CC(O)(C(=O)CO)CC3OC1CC(N(C)C)C(O)C(C)O1 (configuration not stated) | inconclusive: 10.4% |
| Nc1nnnn1/N=C/C(Br)=C/c1ccccc1 | inconclusive: 9.23% |
| O=C(CCl)N(Cc1ccccc1)c1ccccc1 | inconclusive: -0.346% |
